{"source": "PubChem BioAssay AID1508623", "about": "(National Center for Advancing Translational Sciences (NCATS), 2021)", "note": "Among all 48,000 compounds or so, about 450 (0.94%) were called active. Roughly 19% stayed inconclusive and do not appear here. The call rests on the fitted dose curve; in most records, active means well fitted inhibition curve with a large enough effect; inconclusive means small, poorly fitted or top-dose-only effect; inactive means no such curve, though single readings can be large or run the other way. The list shows a part of the results.", "data": [{"test": "Primary qHTS for Identification of Small Molecule Inhibitors of Huntingtin Promoter Activity; further: nearly all actives have a fitted effect of over 50% in size", "settings": "HEK293 HTT promoter firefly luciferase reporter (activity 0% = vehicle and -100% = no light), 24 h; series mostly up to 57.5 µM; activity change, negative = inhibition: at the top concentration", "in_short": "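Quantitative HTS used concentration series of up to 57.5 uM final on HEK293 luciferase reporter cells, 24 h at 37 degrees C. Readout was Dual-Glo firefly luminescence.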", "values": [{"smiles": "CC(=O)Nc1cccc(NC(=O)CSc2cn(CC(=O)N(C(C)C)C(C)C)c3ccccc23)c1", "activity change, negative = inhibition": "inactive: -8.73%"}, {"smiles": "COc1ccc(NC(=O)CN2C(=O)COc3ccc(S(=O)(=O)Nc4ccccc4)cc32)cc1OC", "activity change, negative = inhibition": "inactive: -9.81%"}, {"smiles": "CCN(c1cccc(C)c1)S(=O)(=O)c1ccc2c(c1)NC(=O)CCS2", "activity change, negative = inhibition": "inactive: -14.7%"}, {"smiles": "O=C(COCc1cc(-c2cccs2)on1)Nc1cccc(Cl)c1Cl", "activity change, negative = inhibition": "inactive: -7.38%"}, {"smiles": "O=C(NC1CC(=O)N(c2ccccc2)C1)c1ccc(Br)o1", "note": "(stereo not drawn)", "activity change, negative = inhibition": "inactive: -16.3%"}, {"smiles": "O=C(NCCCN1CCN(c2cccc(Cl)c2)CC1)Nc1ccccc1C(F)(F)F", "activity change, negative = inhibition": "inactive: -14.7%"}, {"smiles": "CCN(CC)CCOC(=O)C1(c2ccccc2)CCCC1", "activity change, negative = inhibition": "inactive: 4.62%"}, {"smiles": "COc1cccc(CNC(=O)C2CCN(c3nn4c(=O)cc(C)nc4s3)CC2)c1", "activity change, negative = inhibition": "inactive: -8.01%"}, {"smiles": "CCOc1ccc(NC(=O)c2cc3c(n(-c4ccc(OC)cc4)c2=O)CC(C)(C)CC3=O)cc1", "activity change, negative = inhibition": "inactive: -8.68%"}, {"smiles": "COc1ccccc1Cn1c(CNS(=O)(=O)c2ccccc2Cl)nc2cccnc21", "activity change, negative = inhibition": "inactive: -8.41%"}, {"smiles": "CNc1nc(-c2ccc3c(N)n[nH]c3c2)cc(N2C[C@@H](C(=O)NC3CCCCC3)CC[C@@H]2C)n1", "activity change, negative = inhibition": "inactive: -18.4%"}, {"smiles": "CCOC(=O)c1ccc2c(c1)N(CC(=O)Nc1ccc(C)cc1C)C(=O)c1ccccc1S2", "activity change, negative = inhibition": "inactive: -17.2%"}, {"smiles": "COc1ccc(NC(=O)c2nnn(Cc3nc(-c4cc(OC)c(OC)c(OC)c4)oc3C)c2C)cc1", "activity change, negative = inhibition": "inactive: -1.65%"}, {"smiles": "CCN(CC)C(=O)Cn1cc(SCC(=O)Nc2ccccc2F)c2ccccc21", "activity change, negative = inhibition": "inactive: -18.3%"}, {"smiles": "COc1ccc(-c2nc(C(N)=O)c3c(n2)n(-c2ccccc2OC)c(=O)n3C)c(OC)c1", "activity change, negative = inhibition": "inactive: -13.2%"}, {"smiles": "CSc1cccc(NC(=O)C2CCN(c3ncnc4c3nc3n4CCCCC3)CC2)c1", "activity change, negative = inhibition": "inactive: -25.5%"}, {"smiles": "O=C(c1ccc(F)cc1)N1CCC(c2nc3ccccc3o2)CC1", "activity change, negative = inhibition": "inactive: -18.3%"}, {"smiles": "CC(C)NC(=O)CC(=O)Nc1ccc2nc3n(c(=O)c2c1)CCCCC3", "activity change, negative = inhibition": "inactive: -6.76%"}, {"smiles": "N=C(N)N", "activity change, negative = inhibition": "inactive: -1.89%"}, {"smiles": "CCOc1ccccc1NC(=O)C(NS(=O)(=O)c1ccc2c(c1)CCC(=O)N2)c1ccccc1", "note": "(stereo not drawn)", "activity change, negative = inhibition": "inactive: -17.1%"}, {"smiles": "O=C(NC1CCCCCC1)c1cc2c(Cl)nc3ccccc3c2s1", "activity change, negative = inhibition": "inactive: -2.32%"}, {"smiles": "COc1ccc(CNC(=O)c2ccc3c(c2)N(C)C(=O)C2CCCCN32)cc1OC", "note": "(stereo not drawn)", "activity change, negative = inhibition": "inactive: 19.8%"}, {"smiles": "CC(C)(C)c1ccc(Oc2nc3ccccn3c(=O)c2/C=C(\\C#N)c2nc3ccccc3[nH]2)cc1", "activity change, negative = inhibition": "inactive: -4.86% [at 11.5 µM]"}, {"smiles": "O=C(CCC(=O)N1CC2CCCN2c2ccccc21)NCc1ccccc1", "note": "(stereo not drawn)", "activity change, negative = inhibition": "inactive: -13.5%"}, {"smiles": "O=C(NC1CCOCC1)c1ccc(-c2cc(-c3cn[nH]c3-c3ccccn3)ccn2)cc1", "activity change, negative = inhibition": "inactive: 1.17%"}, {"smiles": "CCOC(=O)c1ccc(NC(=O)C2=C(C)Nc3nc(SCc4ccc(Cl)cc4)nn3C2c2ccc(C)cc2)cc1", "note": "(stereo not drawn)", "activity change, negative = inhibition": "inactive: 2.2%"}, {"smiles": "CCOc1ccc(CC(=O)NCCc2csc(-c3ccc(C(F)(F)F)cc3)n2)cc1", "activity change, negative = inhibition": "inactive: -7.9%"}, {"smiles": "Cc1nn(C(=O)COc2ccccc2)c(C)c1Sc1ccccc1", "activity change, negative = inhibition": "inactive: -11.9%"}, {"smiles": "CC(NC(=O)c1nn(C)c2c1CSc1ccccc1-2)c1ccccc1", "note": "(stereo not drawn)", "activity change, negative = inhibition": "inactive: 21.2%"}, {"smiles": "CC1CCN(C(=O)CN2CCSc3ccccc32)CC1", "activity change, negative = inhibition": "inactive: -7.26%"}, {"smiles": "O=C(Nc1ccc(SC(F)F)cc1)c1cc(-c2cccs2)on1", "activity change, negative = inhibition": "inactive: 26.3%"}, {"smiles": "Cc1ccc(-c2cc(NC(=O)C(C)Oc3ccc(C)c(C)c3)on2)cc1", "note": "(stereo not drawn)", "activity change, negative = inhibition": "inactive: 7.26%"}, {"smiles": "COc1ccc(N2CC(c3nc(-c4cc(OC)c(OC)c(OC)c4)no3)CC2=O)cc1Cl", "note": "(stereo not drawn)", "activity change, negative = inhibition": "inactive: -11.5%"}, {"smiles": "O=C(CCS(=O)(=O)c1cccs1)Nc1ccc(C(=O)Nc2cccc(Cl)c2)cc1", "activity change, negative = inhibition": "inactive: -2.98%"}, {"smiles": "COc1cc(OC)cc(C(=O)N2CCC(c3ccncc3)CC2)c1", "activity change, negative = inhibition": "inactive: -10.8%"}, {"smiles": "Cc1ccc(C)c(NC(=O)CN2C(=O)CSc3nc(C)cc(C)c32)c1", "activity change, negative = inhibition": "inactive: -8.49%"}, {"smiles": "Cc1ccc(CNC(=O)CN(c2ccc(C(C)C)cc2)S(=O)(=O)c2c(C)n[nH]c2C)cc1", "activity change, negative = inhibition": "inactive: -20.3%"}, {"smiles": "CC(C)(C)CC(=O)Nc1nnc2n1CCS2", "activity change, negative = inhibition": "inactive: -2.5%"}, {"smiles": "COc1ccc(Cn2ccnc2SCC(=O)Nc2ccc(C)cc2C)cc1", "activity change, negative = inhibition": "inactive: -9.74%"}, {"smiles": "O=C(COc1ccc(Cl)cc1)Nc1ccccc1C(=O)OCc1cc(=O)n2ccsc2n1", "activity change, negative = inhibition": "inactive: 5.67%"}, {"smiles": "CCCC(=O)NCC(c1ccc2c(c1)OCO2)N1CCOCC1", "note": "(stereo not drawn)", "activity change, negative = inhibition": "inactive: -4%"}, {"smiles": "COc1ccccc1CNC(=O)CN1C(=O)CSc2c1c(C)nn2-c1ccccc1", "activity change, negative = inhibition": "inactive: -9.24%"}, {"smiles": "C/C=C/C(=O)N(CC)c1ccccc1C", "activity change, negative = inhibition": "inactive: 5.15%"}, {"smiles": "CC(=O)c1ccc(NS(=O)(=O)c2cc3[nH]c(=O)c(=O)[nH]c3cc2C)cc1", "activity change, negative = inhibition": "inactive: -2.27%"}, {"smiles": "Cc1ccc(C)c(N2CCN(C(=O)Cn3ncc4c(=O)oc5ccc(C)cc5c43)CC2)c1", "activity change, negative = inhibition": "inactive: 3.35%"}, {"smiles": "COc1ccc(S(=O)(=O)NCCc2nnc3ccc(SCC(=O)Nc4ccc(C(F)(F)F)cc4)nn23)cc1", "activity change, negative = inhibition": "inactive: -22.7%"}, {"smiles": "CCCn1c(=N)c(C(=O)NCc2cccnc2)cc2c(=O)n3cc(C)ccc3nc21", "activity change, negative = inhibition": "inactive: -1.76%"}, {"smiles": "O=C(c1cnc2cc(-c3ccccc3)nn2c1)c1cc([N+](=O)[O-])ccc1O", "activity change, negative = inhibition": "inactive: -11.8%"}]}]}
